# Reference: patent publication US7166622B2, “Substituted phenylsulfonamide inhibitors of beta amyloid production” (Wyeth, priority 2002, dated 2007)
# “And” between values parts separate entries of the source, which are not always exact repeats. Equal values may be shown once. At least one read-out could not be matched to a standard name with certainty.
# Test system: beta amyloid production
# Assay: Repressor Release Assay (RRA)
# Assay type: cell-based
# Settings: Conc 1 μg/ml; relative to Example 98
# Method in brief: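 CHO-K1 cells transiently co-transfected with pRSVO-luc and an APP-lacI construct, replated, then treated in duplicate for 36-48 h at 37 °C, 5% CO2. Compounds diluted in 25 mM Hepes, with Hepes/1% DMSO as diluent control. Luciferase read-out in relative light units; toxicity scored 1 non-toxic, 0 toxic.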
row,Compound,APPI % of Example #98
1,"CSCC[C@H](CO)NS(=O)(=O)c1cccc(Cl)c1 [Example 107, 3-chloro-N-[(1R)-1-(hydroxymethyl)-3-(methylthio)propyl]benzenesulfonamide]",91.1%

# Same assay, conditions: Conc 3 μg/ml; relative to Example 98
row,Compound,APPI % of Example #98
1,"CC[C@@H](CO)NS(=O)(=O)c1cccc(Cl)c1 [Example 108, 3-chloro-N-[(1S)-1-(hydroxymethyl)propyl]benzene sulfonamide]",59.78%
2,"CC[C@H](C)[C@H](NS(=O)(=O)c1ccc(F)cc1)C(C)O (stereo partly drawn) [Example 126, 4-fluoro-N-[(1S,2S)-1-(1-hydroxyethyl)-2-methylbutyl]benzenesulfonamide]",56.2%
3,"C=CCC(O)[C@@H](NS(=O)(=O)c1ccc(F)cc1)[C@@H](C)CC (stereo partly drawn) [Example 134, 4-fluoro-N-{(1S)-2-hydroxy-1-[(1S)-1-methylpropyl]-4-pentenyl}benzenesulfonamide]",27.5%

# Same assay, conditions: Conc 10 μg/ml; luciferase activity over diluent control
row,Compound,APPI Fold Increase
1,"C=CCC(O)[C@@H](NS(=O)(=O)c1ccc(F)cc1)[C@@H](C)CC (stereo partly drawn) [Example 134, 4-fluoro-N-{(1S)-2-hydroxy-1-[(1S)-1-methylpropyl]-4-pentenyl}benzenesulfonamide]",2.6 fold
2,"CCC(O)[C@@H](NS(=O)(=O)c1ccc(F)cc1)[C@@H](C)CC (stereo partly drawn) [Example 135, 4-fluoro-N-{(1S)-2-hydroxy-1-[(1S)-1-methylpropyl]butyl}benzenesulfonamide]",2 fold

# Same assay, conditions: Conc 10 μg/ml; relative to Example 98
row,Compound,APPI % of Example #98
1,"CC[C@H](C)[C@H](NS(=O)(=O)c1ccc(F)cc1)C(C)O (stereo partly drawn) [Example 126, 4-fluoro-N-[(1S,2S)-1-(1-hydroxyethyl)-2-methylbutyl]benzenesulfonamide]",59.52%
2,"CC[C@H](C)[C@H](NS(=O)(=O)c1ccc(F)cc1)C(O)C1CCCC1 (stereo partly drawn) [Example 127, N-{(1S,2S)-1-[cyclopentyl(hydroxy)methyl]-2-methylbutyl}-4-fluorobenzenesulfonamide]",116.04%
3,"CCCCC(O)[C@@H](NS(=O)(=O)c1ccc(F)cc1)[C@@H](C)CC (stereo partly drawn) [Example 130, 4-fluoro-N-{(1S)-2-hydroxy-1-[(1S)-1-methylpropyl]hexyl}benzenesulfonamide]",93.87%
4,"CC[C@H](C)[C@H](NS(=O)(=O)c1ccc(F)cc1)C(O)C(C)(C)C (stereo partly drawn) [Example 132, 4-fluoro-N-{(1S)-2-hydroxy-3,3-dimethyl-1-[(1S)-1-methylpropyl]butyl}benzenesulfonamide]",60.21%
5,"C=CC(O)[C@@H](NS(=O)(=O)c1ccc(F)cc1)[C@@H](C)CC (stereo partly drawn) [Example 133, 4-fluoro-N-{(1S)-2-hydroxy-1-[(1S)-1-methylpropyl]-3-butenyl}benzenesulfonamide]",79.67%
6,"CC[C@H](C)[C@H](NS(=O)(=O)c1ccc(F)cc1)C(O)c1ccc(Cl)cc1 (stereo partly drawn) [Example 136, N-{(1S,2S)-1-[(4-chlorophenyl)(hydroxy)methyl]-2-methylbutyl}-4-fluorobenzenesulfonamide]",135.09%
7,"CC[C@H](C)[C@H](NS(=O)(=O)c1ccc(F)cc1)C(O)C=C(C)C (stereo partly drawn) [Example 137, 4-fluoro-N-{(1S)-2-hydroxy-4-methyl 1-[(1S)-1-methylpropyl]-3-pentenyl}benzenesulfonamide]",71.59%
8,"C=C(C)C(O)[C@@H](NS(=O)(=O)c1ccc(F)cc1)[C@@H](C)CC (stereo partly drawn) [Example 138, 4-fluoro-N-{(1S)-2-hydroxy-3-methyl-1-[(1S)-1-methylpropyl]-3-butenyl}benzenesulfonamide]",69.78%
9,"CC[C@H](C)[C@H](NS(=O)(=O)c1ccc(F)cc1)C(O)c1ccc(OC)cc1 (stereo partly drawn) [Example 139, 4-fluoro-N-{(1S,2S)-1-[hydroxy(4-methoxyphenyl)methyl]-2-methylbutyl}benzenesulfonamide]",94.48%
10,"CC[C@H](C)[C@H](NS(=O)(=O)c1ccc(F)cc1)C(O)CCC1OCCCO1 (stereo partly drawn) [Example 140, N-{(1S)-4-(1,3-dioxan-2-yl)-2-hydroxy-1-[(1S)-1-methylpropyl]butyl}-4-fluorobenzenesulfonamide]",67.81%
11,"C=CCCC(O)[C@@H](NS(=O)(=O)c1ccc(F)cc1)[C@@H](C)CC (stereo partly drawn) [Example 141, 4-fluoro-N-{(1S)-2-hydroxy-1-[(1S)-1-methylpropyl]-5-hexenyl}benzenesulfonamide]",76.02%
12,"CC[C@H](C)[C@H](NS(=O)(=O)c1ccc(F)cc1)C(O)c1ccc(SC)cc1 (stereo partly drawn) [Example 142, 4-fluoro-N-((1S,2 S)-1-{hydroxy[4-(methylsulfanyl)phenyl]methyl}-2-methylbutyl)benzenesulfonamide]",114.62%
13,"CC[C@H](C)[C@H](NS(=O)(=O)c1ccc(F)cc1)C(O)c1ccc(N(C)C)cc1 (stereo partly drawn) [Example 143, N-{(1S,2S)-1-[[4-(dimethylamino)phenyl](hydroxy)methyl]-2-methylbutyl}-4-fluorobenzenesulfonamide]",242.28%

# Same assay, conditions: Conc 20 μg/ml; luciferase activity over diluent control
row,Compound,APPI Fold Increase
1,"O=S(=O)(NC1(CO)CCCCC1)c1ccc(Cl)cc1 [Example 123, 4-chloro-N-[1-(hydroxymethyl)cyclohexyl]benzenesulfonamide]",3.5 fold

# Same assay, conditions: Conc 20 μg/ml; relative to Example 98
row,Compound,APPI % of Example #98
1,"CC(C)C[C@@H](CO)NS(=O)(=O)c1ccccc1F [Example 109, 2-fluoro-N-[(1S)-1-(hydroxymethyl)-3-methylbutyl]benzenesulfonamide]",52.6%
2,"O=S(=O)(N[C@H](CO)c1ccccc1)c1ccccc1F [Example 112, 2-fluoro-N-[(1S)-2-hydroxy-1-phenylethyl]benzene sulfonamide]",50.3%
3,"CC(C)C[C@H](CO)NS(=O)(=O)c1ccccc1F [Example 113, 2-fluoro-N-[(1R)-1-(hydroxymethyl)-3-methylbutyl]benzenesulfonamide]",43.9%
4,"O=S(=O)(NC1(CO)CCCC1)c1ccccc1F [Example 114, 2-fluoro-N-[1-(hydroxymethyl)cyclopentyl]benzenesulfonamide]",30.9%
5,"O=S(=O)(N[C@H](CO)CC1CCCCC1)c1ccccc1F [Example 115, N-[(1S)-2-cyclohexyl-1-(hydroxymethyl)ethyl]-2-fluorobenzenesulfonamide]",37.3%
6,"CSc1ccc([C@H](O)[C@H](CO)NS(=O)(=O)c2ccccc2F)cc1 [Example 116, 2-fluoro-N-{(1S,2S)-2-hydroxy-1-(hydroxymethyl)-2-[4-(methylthio)phenyl]ethyl}benzenesulfonamide]",44.8%
7,"O=S(=O)(N[C@H](CO)Cc1ccccc1)c1ccccc1F [Example 118, N-[(1S)-1-benzyl-2-hydroxyethyl]-2-fluorobenzenesulfonamide]",33.6%
8,"CC(C)[C@@H](CO)NS(=O)(=O)c1ccccc1F [Example 119, 2-fluoro-N-[(1S)-1-(hydroxymethyl)-2-methylpropyl]benzenesulfonamide]",46.5%
9,"O=S(=O)(NC1(CO)CCCCC1)c1ccc(Br)cc1 [Example 120, 4-Bromo-N-[1-(hydroxymethyl)-cyclohexyl]-benzenesulfonamide]",135.2%
10,"O=S(=O)(NC1(CO)CCc2ccccc21)c1ccc(Br)cc1 (stereo not drawn) [Example 122, 4-bromo-N-[1-(hydroxymethyl)-2,3-dihydro-1H-inden-1-yl]benzenesulfonamide]",42.1%
11,"O=S(=O)(NC1(CO)CCCCC1)c1ccc(Cl)cc1 [Example 123, 4-chloro-N-[1-(hydroxymethyl)cyclohexyl]benzenesulfonamide]",121% and 97.4%
12,"O=S(=O)(NC1(CO)CCc2ccccc21)c1ccc(Cl)cc1 (stereo not drawn) [Example 124, 4-chloro-N-[1-(hydroxymethyl)-2,3-dihydro-1H-inden-1-yl]benzenesulfonamide]",55.1%
13,"O=S(=O)(NC(CO)(c1ccccc1)C1CCC1)c1ccc(Cl)cc1 (stereo not drawn) [Example 125, 4-chloro-N-(1-cyclobutyl-2-hydroxy-1-phenylethyl)benzenesulfonamide]",49.2%
